Source: publication PMC9911399, “Two distinct binding modes provide the RNA-binding protein RbFox with extraordinary sequence specificity”
Residue numbers refer to the chain shown, from its start. Some of the results follow.

T1: RBFOX1 RRM (Homo sapiens, UniProt Q9NWB1 109-208)
T1 sequence: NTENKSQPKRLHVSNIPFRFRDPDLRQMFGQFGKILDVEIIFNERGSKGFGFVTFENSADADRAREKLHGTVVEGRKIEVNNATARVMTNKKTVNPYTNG

B1: GCUCUCA (DNA:RNA)
RNA: GGGAGACCGGAAUUCAGAUUGUCCGCUCUCAUUAAAUCCCGUCGUAGCCACCA
DNA 1: CAATCTGAATTCCGGTCTCCC
DNA 2: TGGTGGCTACGACGGGATT
B2: CAACUAG (DNA:RNA)
RNA: B1 RNA with G25C, C26A, U27A, C30A, A31G
DNA 1: CAATCTGAATTCCGGTCTCCC
DNA 2: TGGTGGCTACGACGGGATT
B3: AUAGCCU (DNA:RNA)
RNA: B1 RNA with G25A, C26U, U27A, C28G, U29C, A31U
DNA 1: CAATCTGAATTCCGGTCTCCC
DNA 2: TGGTGGCTACGACGGGATT
B4: GGAGAUU (DNA:RNA)
RNA: B1 RNA with C26G, U27A, C28G, U29A, C30U, A31U
DNA 1: CAATCTGAATTCCGGTCTCCC
DNA 2: TGGTGGCTACGACGGGATT
B5: UUGGGAA (DNA:RNA)
RNA: B1 RNA with G25U, C26U, U27G, C28G, U29G, C30A
DNA 1: CAATCTGAATTCCGGTCTCCC
DNA 2: TGGTGGCTACGACGGGATT
B6: AGAUUUU (DNA:RNA)
RNA: B1 RNA with G25A, C26G, U27A, C28U, C30U, A31U
DNA 1: CAATCTGAATTCCGGTCTCCC
DNA 2: TGGTGGCTACGACGGGATT
B7: CGCUGUA (DNA:RNA)
RNA: B1 RNA with G25C, C26G, U27C, C28U, U29G, C30U
DNA 1: CAATCTGAATTCCGGTCTCCC
DNA 2: TGGTGGCTACGACGGGATT
B8: GCAUCGA (DNA:RNA)
RNA: B1 RNA with U27A, C28U, U29C, C30G
DNA 1: CAATCTGAATTCCGGTCTCCC
DNA 2: TGGTGGCTACGACGGGATT
B9: CCUUUCA (DNA:RNA)
RNA: B1 RNA with G25C, C28U
DNA 1: CAATCTGAATTCCGGTCTCCC
DNA 2: TGGTGGCTACGACGGGATT
B10: UGCAAAA (DNA:RNA)
RNA: B1 RNA with G25U, C26G, U27C, C28A, U29A, C30A
DNA 1: CAATCTGAATTCCGGTCTCCC
DNA 2: TGGTGGCTACGACGGGATT
B11: CUCGGAU (DNA:RNA)
RNA: GGGAGACCGGAAUUCAGAUUGUCCCUCGGAUUUAAAUCCCGUCGUAGCCACCA
DNA 1: CAATCTGAATTCCGGTCTCCC
DNA 2: TGGTGGCTACGACGGGATT
B12: UGUAGCC (DNA:RNA)
RNA: B1 RNA with G25U, C26G, C28A, U29G, A31C
DNA 1: CAATCTGAATTCCGGTCTCCC
DNA 2: TGGTGGCTACGACGGGATT
B13: ACUAAGA (DNA:RNA)
RNA: B1 RNA with G25A, C28A, U29A, C30G
DNA 1: CAATCTGAATTCCGGTCTCCC
DNA 2: TGGTGGCTACGACGGGATT
B14: UUCAGCU (DNA:RNA)
RNA: B11 RNA with C25U, G28A, A30C
DNA 1: CAATCTGAATTCCGGTCTCCC
DNA 2: TGGTGGCTACGACGGGATT
B15: GUACCCU (DNA:RNA)
RNA: B1 RNA with C26U, U27A, U29C, A31U
DNA 1: CAATCTGAATTCCGGTCTCCC
DNA 2: TGGTGGCTACGACGGGATT
B16: AUUGUAG (DNA:RNA)
RNA: B11 RNA with C25A, C27U, G29U, U31G
DNA 1: CAATCTGAATTCCGGTCTCCC
DNA 2: TGGTGGCTACGACGGGATT
B17: UCCCGAU (DNA:RNA)
RNA: B11 RNA with C25U, U26C, G28C
DNA 1: CAATCTGAATTCCGGTCTCCC
DNA 2: TGGTGGCTACGACGGGATT
B18: CUGGGAC (DNA:RNA)
RNA: B11 RNA with C27G, U31C
DNA 1: CAATCTGAATTCCGGTCTCCC
DNA 2: TGGTGGCTACGACGGGATT
B19: CCAGAGG (DNA:RNA)
RNA: B11 RNA with U26C, C27A, G29A, A30G, U31G
DNA 1: CAATCTGAATTCCGGTCTCCC
DNA 2: TGGTGGCTACGACGGGATT
B20: GAGUCUA (DNA:RNA)
RNA: B1 RNA with C26A, U27G, C28U, U29C, C30U
DNA 1: CAATCTGAATTCCGGTCTCCC
DNA 2: TGGTGGCTACGACGGGATT
B21: CCGUACG (DNA:RNA)
RNA: B1 RNA with G25C, U27G, C28U, U29A, A31G
DNA 1: CAATCTGAATTCCGGTCTCCC
DNA 2: TGGTGGCTACGACGGGATT
B22: UCUACGC (DNA:RNA)
RNA: B1 RNA with G25U, C28A, U29C, C30G, A31C
DNA 1: CAATCTGAATTCCGGTCTCCC
DNA 2: TGGTGGCTACGACGGGATT
B23: CGACAUA (DNA:RNA)
RNA: B1 RNA with G25C, C26G, U27A, U29A, C30U
DNA 1: CAATCTGAATTCCGGTCTCCC
DNA 2: TGGTGGCTACGACGGGATT
B24: GACAAAG (DNA:RNA)
RNA: B11 RNA with C25G, U26A, G28A, G29A, U31G
DNA 1: CAATCTGAATTCCGGTCTCCC
DNA 2: TGGTGGCTACGACGGGATT
B25: AAAGAUC (DNA:RNA)
RNA: B11 RNA with C25A, U26A, C27A, G29A, A30U, U31C
DNA 1: CAATCTGAATTCCGGTCTCCC
DNA 2: TGGTGGCTACGACGGGATT
B26: GUGCGCG (DNA:RNA)
RNA: B1 RNA with C26U, U27G, U29G, A31G
DNA 1: CAATCTGAATTCCGGTCTCCC
DNA 2: TGGTGGCTACGACGGGATT
B27: GGGAGUG (DNA:RNA)
RNA: B11 RNA with C25G, U26G, C27G, G28A, A30U, U31G
DNA 1: CAATCTGAATTCCGGTCTCCC
DNA 2: TGGTGGCTACGACGGGATT
B28: AAGGCCG (DNA:RNA)
RNA: B11 RNA with C25A, U26A, C27G, G29C, A30C, U31G
DNA 1: CAATCTGAATTCCGGTCTCCC
DNA 2: TGGTGGCTACGACGGGATT
B29: AGGUACG (DNA:RNA)
RNA: B1 RNA with G25A, C26G, U27G, C28U, U29A, A31G
DNA 1: CAATCTGAATTCCGGTCTCCC
DNA 2: TGGTGGCTACGACGGGATT
B30: UCGGCGG (DNA:RNA)
RNA: B11 RNA with C25U, U26C, C27G, G29C, A30G, U31G
DNA 1: CAATCTGAATTCCGGTCTCCC
DNA 2: TGGTGGCTACGACGGGATT
B31: UAUCCAU (DNA:RNA)
RNA: B11 RNA with C25U, U26A, C27U, G28C, G29C
DNA 1: CAATCTGAATTCCGGTCTCCC
DNA 2: TGGTGGCTACGACGGGATT

Target: T1, RBFOX1 RRM
Assay: EMSA; HiTS-Eq, 1 nM pool, 10 min; buffer printed only for the single-RNA assays: 10 mM Tris pH 7.5, 150 mM NaCl, 3.4 mM EDTA, 0.001% NP-40, 30 C
Conditions: tags: His6 N-terminal (pET28a); label: 5' 32P
Outline: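 Purified RbFox RRM, wild type or mutant, was incubated for 10 min in 50 µL with 1 nM of a 5′-radiolabelled RNA pool carrying 7 randomized nucleotides, whose flanks were annealed to DNA oligonucleotides, over a series of increasing protein concentrations. Unbound RNA was resolved on 8% native PAGE, cut out, reverse-transcribed, barcoded by PCR and sequenced on an Illumina HiSeq 2500. Relative association constants were derived from changes in read counts for each RNA species versus the control reaction and normalised to the cognate motif.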

Question: With B1 as the binder, how does the binding signal read?
Answer: 0.00823 KA relative to UGCAUGU

Question: For B2, which binding signal is on record?
Answer: 0.00305 KA relative to UGCAUGU

Question: B3 was tested. Which binding signal did it give?
Answer: 0.00479 KA relative to UGCAUGU

Question: How did the binding signal turn out when B4 was run?
Answer: 0.0219 KA relative to UGCAUGU

Question: B5 was tested. Which binding signal did it give?
Answer: 0.0102 KA relative to UGCAUGU

Question: With B6 as the binder, how does the binding signal read?
Answer: 0.0111 KA relative to UGCAUGU

Question: How did the binding signal turn out when B7 was run?
Answer: 0.0108 KA relative to UGCAUGU

Question: Which binding signal does the source give for B8 here?
Answer: 0.0185 KA relative to UGCAUGU

Question: For B9, which binding signal is on record?
Answer: 0.00509 KA relative to UGCAUGU

Question: B10 was tested. Which binding signal did it give?
Answer: 0.00723 KA relative to UGCAUGU

Question: How did the binding signal turn out when B11 was run?
Answer: 0.00891 KA relative to UGCAUGU

Question: Which binding signal does the source give for B12 here?
Answer: 0.0129 KA relative to UGCAUGU

Question: Which binding signal does the source give for B13 here?
Answer: 0.00644 KA relative to UGCAUGU

Question: With B14 as the binder, how does the binding signal read?
Answer: 0.0069 KA relative to UGCAUGU

Question: How did the binding signal turn out when B15 was run?
Answer: 0.00296 KA relative to UGCAUGU

Question: With B16 as the binder, how does the binding signal read?
Answer: 0.0107 KA relative to UGCAUGU

Question: With B17 as the binder, how does the binding signal read?
Answer: 0.000704 KA relative to UGCAUGU

Question: For B18, which binding signal is on record?
Answer: 0.00375 KA relative to UGCAUGU

Question: B19 was tested. Which binding signal did it give?
Answer: 0.00932 KA relative to UGCAUGU

Question: How did the binding signal turn out when B20 was run?
Answer: 0.00536 KA relative to UGCAUGU

Question: With B21 as the binder, how does the binding signal read?
Answer: 0.00994 KA relative to UGCAUGU

Question: B22 was tested. Which binding signal did it give?
Answer: 0.00734 KA relative to UGCAUGU

Question: How did the binding signal turn out when B23 was run?
Answer: 0.00163 KA relative to UGCAUGU

Question: How did the binding signal turn out when B24 was run?
Answer: 0.0104 KA relative to UGCAUGU

Question: B25 was tested. Which binding signal did it give?
Answer: 0.00365 KA relative to UGCAUGU

Question: With B26 as the binder, how does the binding signal read?
Answer: 0.0262 KA relative to UGCAUGU

Question: How did the binding signal turn out when B27 was run?
Answer: 0.0333 KA relative to UGCAUGU

Question: B28 was tested. Which binding signal did it give?
Answer: 0.00802 KA relative to UGCAUGU

Question: Which binding signal does the source give for B29 here?
Answer: 0.0122 KA relative to UGCAUGU

Question: How did the binding signal turn out when B30 was run?
Answer: 0.0227 KA relative to UGCAUGU

Question: How did the binding signal turn out when B31 was run?
Answer: 0.00534 KA relative to UGCAUGU
